The RNAGym collection of RNA variant scans (doi:10.7554/elife.90254)
Read counts are not given, so values of variants with three or more changes are uncertain.

B1: LINE1-full (parent)
chain: UACGUAGGUGGUUUUCCCCUGAUAGUGCUAAGGGGGCCUGGAAGUUUGGACUGGGCAGAGCUCAACACAGCGUGGCAAAGUGGCUGUGGCUAGACUGCCUCUCUGGAUUCCUCGUCACUCAGCAGGGCAUCUCUGAGAGAAAUGCC

Variants of: B1
Assay: self-cleavage, relative activity (ratio to wild type); higher = more cleavage; in vitro, sequencing; the parent is a self-cleaving ribozyme
C3U C38U A107G U109C U115G U132C showed a self-cleavage of 0. Work on A2G U12A U26C U96C U119A G126C yielded a self-cleavage of 0. A2G A77G G122A gave a self-cleavage of 0.81. Variant C3U U26C G89A G126U has a self-cleavage of 0.09. For A2G C76U G83A, the self-cleavage was 0.55. Work on A2G U87A G88A yielded a self-cleavage of 0.18. In the case of A2G A24G U81A, the self-cleavage is reported as 1.24. Work on A2G C76U A78U U109C yielded a self-cleavage of 1.21. In the case of G4A A31U C37G A64U, the self-cleavage is reported as 0.41. For C3U A30U U39A, the self-cleavage was 0.73. Variant G4A A30U U96C has a self-cleavage of 0.12. A2U U20C U104C U108C showed a self-cleavage of 0.38. For C3U A43G U47C A50U A67G, the self-cleavage was 0. Variant A2U U13G U87C has a self-cleavage of 0.2. Variant A2C U45G U46C A69U G106A C111U U130A has a self-cleavage of 0.11. Work on U1C U73A A136G yielded a self-cleavage of 1.13. In the case of G4A A22G G53A U96A U109C C118U A142G, the self-cleavage is reported as 0.02. A2C G35A U46G G60U G88A gave a self-cleavage of 0.01. Variant A2G A30G U119C has a self-cleavage of 0.57. Variant C3U U13A U15C U62C has a self-cleavage of 0.18. For U1C U73A U85A U96A U102C A121G, the self-cleavage was 0.05. For A2G U12C G74A U85C G114A U134C A140G A142G, the self-cleavage was 0.28. A2G U13A U15C U26C A65G A107G U109A gave a self-cleavage of 0. Work on A2G A94G A117U G137U yielded a self-cleavage of 0. With A2G A69G A77U A94U A138G the self-cleavage was 0.04. U1G U45C U119C gave a self-cleavage of 0. C3A A59U U100A A141G showed a self-cleavage of 0.28. In the case of A2G A129G U132C U134C, the self-cleavage is reported as 0.84. Work on C3A C71G U96C yielded a self-cleavage of 0.21. Variant U1C U46C A79G U104C C145G has a self-cleavage of 0.92. Variant A2G A65G U96A A136G A141G has a self-cleavage of 0.16. Variant A2G U47C A94G has a self-cleavage of 0. Work on A2C A67G A77G yielded a self-cleavage of 1.08. With A2G A22U A59U the self-cleavage was 0.95. C3A U52C A59U gave a self-cleavage of 0.38. With A2G G105U U115C the self-cleavage was 0.35. For C3A U15G G36A A57G C76U G86U, the self-cleavage was 0.08. A2G C18G U47G U104C gave a self-cleavage of 0. C3U A57G G127A gave a self-cleavage of 0.74. Work on U1C U45A A77G yielded a self-cleavage of 1.69. With A2G U14C A43G U45A U132G the self-cleavage was 2.4. Variant C3U A59U U132C A136U has a self-cleavage of 0.9. C3U A124G A129G A138G gave a self-cleavage of 1.08. Variant C3U U45A U52A G53A A92G has a self-cleavage of 0. G4A C68U U73C showed a self-cleavage of 0.26. In the case of A2G A77G G80A C110U A136U, the self-cleavage is reported as 1.4. In the case of C3U A67U U102A, the self-cleavage is reported as 0.16. Work on A2U G8A C18U U45C U104A A141G U143G yielded a self-cleavage of 1.18. A2G G8A A42G U130C gave a self-cleavage of 0.34. A2G A121G C131U gave a self-cleavage of 0.76. A2G A22G G32A U47C A78G A142G gave a self-cleavage of 0.61. Variant A2C A79G U143A has a self-cleavage of 1.8. A2G A57G U104A U119A gave a self-cleavage of 0.64. In the case of A2G U5C A78G, the self-cleavage is reported as 0.96. For A2G U12G U52A C90U, the self-cleavage was 0.11. A2G U13C G83A U115A showed a self-cleavage of 0.51. A2G A30G A69U A117G showed a self-cleavage of 0.48. A2G U81A A129G A141U gave a self-cleavage of 1.18. With A2G U100A A140G the self-cleavage was 0.18. With C3U G54U A77G the self-cleavage was 1. For C3U U14C A24G A140G, the self-cleavage was 0.64. For C3U A69G U134C, the self-cleavage was 0. A2G U52A A64G showed a self-cleavage of 0.4. In the case of A2G U13C U47A, the self-cleavage is reported as 1.53. Work on A2G A24U C37U yielded a self-cleavage of 0.57. In the case of A2U U46C U52A A64U A141G, the self-cleavage is reported as 0.29. For C3A U26C A65U A78U U91A G114U, the self-cleavage was 0.08. With A2G U13C U47C C71G U104A the self-cleavage was 0.64. Work on U1G U39C A77U G86A yielded a self-cleavage of 0.07. In the case of U1G A43U U102A U132C, the self-cleavage is reported as 0.51. For A2G C18U A77U C98G A124G, the self-cleavage was 0.14. G4A G60A A94G G135A gave a self-cleavage of 0.14. For A2G U13C U23A C71U U102C, the self-cleavage was 0.31. Work on A2G G7U U9A A30G yielded a self-cleavage of 1.18. A2U U20C A24G G27A U39C A129U showed a self-cleavage of 0.57. Variant C3A U29C A94G has a self-cleavage of 0.16. A2G U119A U143C showed a self-cleavage of 1.31. G4A A78G A138G A142C gave a self-cleavage of 0.71. In the case of A2G A50U C118U, the self-cleavage is reported as 0.63. Variant C3U A30G G32A G33A A136G has a self-cleavage of 0.94. For A2G U13C G33A, the self-cleavage was 0. For A2G A67G U100A U134C, the self-cleavage was 0. In the case of A2G U13C U91A, the self-cleavage is reported as 0.42. A2G A64U A136G showed a self-cleavage of 0.86. C3A C51A U115A G127A showed a self-cleavage of 0.95. Work on A2G U20C U47C U119A U143A yielded a self-cleavage of 0.78. For A2G C3A U102C A136U, the self-cleavage was 1.93. For G4A G7A G40A U52C, the self-cleavage was 0.64. A2G U115C A121G showed a self-cleavage of 2.63. Variant C3U U52C U85C has a self-cleavage of 0.32. A2G U13C U62C A142G gave a self-cleavage of 0. Work on A2U U9A A64G yielded a self-cleavage of 0.34. Variant C3U A22G U96C has a self-cleavage of 0.44. For A2G U9C U20C A59G G72U G126A, the self-cleavage was 0.27. For U1C U26A U52A A69G, the self-cleavage was 0.28. Work on A2G U12C G36A G83U U115C A140G yielded a self-cleavage of 0.68. For A2G U14A A69G A129U, the self-cleavage was 0.4. In the case of C3U U100C A138G, the self-cleavage is reported as 1.76. C3A U14C U119A U132C gave a self-cleavage of 0.89. For A2G U104C U112A A141G, the self-cleavage was 1.18. Variant C3A U12C A24G has a self-cleavage of 1.45. For C3U U29C G127A, the self-cleavage was 0.5. Work on A2G A43U U45C U119C yielded a self-cleavage of 0. In the case of C3G U12G U96C, the self-cleavage is reported as 0.29. With A2C U20C A43G G72A U134A the self-cleavage was 0.16. Variant C3U U39A A79U U104C A124G U134C has a self-cleavage of 1.72. Work on U1C U100C A140U yielded a self-cleavage of 0.93. In the case of A2G U15C U100A, the self-cleavage is reported as 0.29. C3U A22G U62C A107G showed a self-cleavage of 0. A2G U91C U102A A138G gave a self-cleavage of 0.33. In the case of C3U U5C U119C, the self-cleavage is reported as 1.11. In the case of A2G U85C G144A, the self-cleavage is reported as 0.77. With A2G U62A U130C A140U the self-cleavage was 0.26. In the case of A2G A69U U87A A124G U132A, the self-cleavage is reported as 0.25. For A2G U45C A79G, the self-cleavage was 0.42. Variant A2G U73C A94G A140G has a self-cleavage of 1.02. Work on A2G A30U A129G yielded a self-cleavage of 0.66. Variant C3U A43G A107U U112C has a self-cleavage of 0.54. With A2G U39A A57U U73C the self-cleavage was 0.25. Work on C3U A31G A59G yielded a self-cleavage of 0.15. U1C U104A U112C gave a self-cleavage of 0.33. Work on A2G A65G U73A U115A A124U yielded a self-cleavage of 0.17. Work on A2G A42G U87A yielded a self-cleavage of 0.19. For A2U A59U U73A U104A U109A, the self-cleavage was 0.55. For C3U A22G A78G C101G, the self-cleavage was 1. U1C U85C A142G showed a self-cleavage of 0.16. With A2G U96C C123G the self-cleavage was 0.52. With G4A A24G U46C U73C U85C C99A the self-cleavage was 0. With A2G C51U A78G U85C A121C A136G A142G the self-cleavage was 0. C3U U13C U45A A138G gave a self-cleavage of 0.44. C3U U14C A142G gave a self-cleavage of 0.92. With G4A G55C A121G U130C A141G the self-cleavage was 0.29. A2G U9C G72A A141G gave a self-cleavage of 1.46. With A2G A22C A124G A141G the self-cleavage was 1.02. Work on A2G U14G U143C yielded a self-cleavage of 0.82. A2G U47A A141G gave a self-cleavage of 0. A2G A69U A94G gave a self-cleavage of 0.23. In the case of A2G U13C U15C U47C A57G, the self-cleavage is reported as 0.85. Work on A2G G8C G53A U62A A78G A117U yielded a self-cleavage of 0.08. Work on A2G A42G U96C A142G yielded a self-cleavage of 0.31. With A2G U5A U15A C37G G106U U130A the self-cleavage was 0.83. A2G U15A U39C U119C A140G gave a self-cleavage of 0.84. A2G U20C U130C G144A showed a self-cleavage of 1.46. For A2U U29G A121G, the self-cleavage was 2.38. A2G U13C A124G gave a self-cleavage of 1.15. For U1C U81A A138G, the self-cleavage was 1.29. Variant A2G U20C U73C U134A has a self-cleavage of 0.68. Variant A2G U5C A30U U143C has a self-cleavage of 0.75. A2C U13C U20C U23C gave a self-cleavage of 0. For A2G U45A A64G A65G, the self-cleavage was 0. For A2G U47G U112C, the self-cleavage was 2.42. Variant A2U U62C C133U has a self-cleavage of 0.13. Work on U1C U39C U85A U134C A138G yielded a self-cleavage of 0.16. For C3U U26C G33A, the self-cleavage was 0.69. A2G A67G U115C A140G gave a self-cleavage of 1.53. A2G U47A U115A gave a self-cleavage of 0.68. A2G U91C U112A gave a self-cleavage of 0.74. A2U U12C U14C U52A A78G U143G showed a self-cleavage of 0.62. G4A A6G U115C A141G showed a self-cleavage of 2.63. C3U U96C U132C showed a self-cleavage of 0.21. For G4A A117G U134C, the self-cleavage was 0.77. Variant A2G U9C U108C A142U has a self-cleavage of 0. A2U U5C U52C U134C gave a self-cleavage of 0. In the case of A2G U9A U73C G127U, the self-cleavage is reported as 1.21. In the case of U1C U119C A142G, the self-cleavage is reported as 2.21. A2U A43G U62C U134A gave a self-cleavage of 0. Work on C3U A77G U96A yielded a self-cleavage of 0.15.
